Test results reported in ChEMBL document CHEMBL4888484, “Replenishing the malaria drug discovery pipeline: Screening and hit evaluation of the MMV Hit Generation Library 1 (HGL1) against asexual blood stage Plasmodium falciparum ,using a nano luciferase reporter read-out” (2022).
Screen size: about 150,000 compounds; about 540 (0.36%) showed an effect of 50% or more. The list shows a part of the results.

The molecules below were run on Plasmodium falciparum (assay: Primary screen in NF54 nanoGlo assay, in single point, at 2uM, 72h; a lower Z score goes with more inhibition). Details: timepoint 72 hour.
Type: functional, Erythrocyte

Compound	% Inhibition [%]	Z score
O=C1NC(=O)[C@]2(CCOc3ccc(F)cc32)N1	35	-4.46
O=S1(=O)CCC[C@H](CS(=O)(=O)Cc2noc(C3CCCCC3)n2)C1	-1	0.1
Cc1nn(CC(=O)N[C@@H](C)C2=CCCCC2)c(=O)n1CCc1ccccc1	2	-0.24
CC(=O)NCC1=CCCN(CC(=O)N2CCc3ccccc32)C1	-7	0.84
C[C@@H]1COCCN1C(=O)CCc1c[nH]cn1	-9	1.59
CC1CCC(C(N)=O)CN1C(=O)c1cc(C2CC2)on1 (centres undefined)	8	-1.01
CCOc1cc(C(=O)N2CCO[C@H](c3ccco3)C2)on1	-6	0.8
COCCN(CC(=O)Nc1nc(-c2ccc(Cl)cc2)cn1-c1cc(OC)cc(OC)c1)C(=O)CC(C)C	-6	1.12
CC(C)Cc1nc(C(=O)N2CCOC[C@@H](C3CCC3)C2)cs1	-3	0.5
Cn1cnc2c1CCN(C(=O)Cc1cc3ccccc3n1C)C21CCOCC1	1	-0.15
COc1ccc(NC(C)=O)cc1NC(=O)CC[C@@H](C)[C@H]1CC[C@H]2[C@@H]3[C@H](O)C[C@@H]4C[C@H](O)CC[C@]4(C)[C@H]3C[C@H](O)[C@]12C	24	-3.94
CCOc1ncccc1-c1nccc(OC)n1	0	0.03
Cc1ccc(F)c(CNC(=O)c2cc(CCc3ccccc3)no2)c1F	-2	0.4
O=C1C[C@H](N2CCCCCC2)C(=O)N1c1ccc(Oc2ccccc2)cc1	-12	1.53
COCc1nc(CCc2ccncc2)n(C(C)(C)C)n1	-8	1.16
C[C@@H](COc1ccccc1)N1CCC(Oc2cccc(C(=O)N3CCCC3)c2)CC1	7	-0.75
O=C1C[C@H](C(=O)N2CCC(CO)(Cc3ccccc3)CC2)CN1Cc1ccncc1	2	-0.37
C[C@@H](C(=O)NC1CCCC1)N(C)Cc1n[nH]c2c1CCCCC2	-1	0.24
O=c1nc2n(nc1-c1ccc(F)cc1)C1(CCCC1)Nc1ccccc1-2	-9	0.98
Cc1ncc(C(=O)NCCc2csc(N3CCCC3)n2)c(C(C)C)n1	-12	1.69
CCN(CC)C(=O)N1CCN(C(=O)c2ccncc2Cl)CC1	0	0

Compound	% Inhibition [%]	Z score
Cc1ccc(-c2nn(-c3ccccc3)cc2C(=O)N2CCCCC2)o1	-17	2.17
Cc1ccc(N2CCC(CNC(=O)c3cccnc3)CC2)nn1	-9	1.18
Cc1noc(C)c1CN(C)C(=O)c1ccc2[nH]cnc2c1	-9	1.28
CC(C)C(=O)N(CCCN1CCCC1)[C@H]1CCCN(C(=O)c2cn(C)cn2)C1	-4	0.66
COC(=O)c1ccc(NC(=O)C[C@@H]2NC(=O)N(Cc3ccccc3Cl)C2=O)cc1	-11	1.59
O=c1c2ccccc2ncn1Cc1nnc(-c2ccccc2)o1	-11	1.06
Cn1cnc2c1CCN(C(=O)c1cc(OC(F)F)n(C)n1)C21CCOCC1	-11	1.88
CCO[C@H]1COC[C@@H]1NC(=O)CCn1ccnc1	5	-0.93
CCC(=O)N1CCC2(CC1)C[C@@H](Cc1ccccc1)CCO2	9	-0.97
Cc1ccc(N(C)C(=O)C2CC=CC2)cc1N(C)C(=O)C1CC=CC1	-10	1.19
COc1ccc(NC(=O)Nc2ccc3nn[nH]c(=O)c3c2)cc1	-4	0.5
CC(C)CCn1c(=O)c2sccc2n(CC(=O)N(C)c2ccccc2)c1=O	36	-1.24
NC(=O)[C@@H]1CN(CCNC(=O)OCC(F)(F)F)CCO1	-6	1.19
Cc1cc(C(=O)NC[C@@](C)(O)CCc2ccccc2)no1	-10	1.75
CC[C@H]1CN(C(=O)CN2CCCCCCC2)CCO1	-13	1.67
C[C@H]1CN(Cc2csnn2)c2cccc(F)c2O1	-14	1.57
CC(C)c1cnc(NCc2ccncc2)s1	-16	1.58
O=c1[nH]ccnc1N1CCN(Cc2nc(-c3cccnc3)no2)CC1	2	-0.32
O=C(NC(c1cccs1)C1CC1)N[C@@H]1Cc2ccccc2[C@H]1O (some centres undefined)	-3	0.31
CCCc1noc(CN(C)C(=O)c2n[nH]c3c2COCC3)n1	1	-0.14
CCc1cc(C(=O)N2CCC(c3nc4ccccc4s3)CC2)sc1-c1ccccc1	0	0.04
